Test results from PubChem BioAssay AID504832 (National Center for Advancing Translational Sciences (NCATS), 2011).
In all, about 310,000 compounds went through this assay and about 18,000 (5.8%) were called active. This list was built around the results that the source calls inconclusive (neither active nor inactive); the mix of calls is not that of the screen. Calls follow the shape of the dose curve; as a rule, active = well fitted inhibition curve with a large enough effect; inconclusive = small, poorly fitted or top-dose-only effect, or another doubt; inactive = no such curve, though single readings can be large or run the other way. Potencies of inconclusive entries are left out as doubtful fits.

Test: Primary qHTS for delayed death inhibitors of the malarial parasite plastid, 48 hour incubation
Settings: P. falciparum luciferase growth in erythrocytes; series mostly up to 28.7 µM; activity change, negative = inhibition: at the top concentration
Summary of the method: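 Erythrocytes infected with P. falciparum carrying an integrated firefly luciferase reporter (2% hematocrit, 0.1% parasitemia final) were exposed to compounds in RPMI 1640 with 0.5% Albumax at 37 C, 5% CO2. Growth inhibition was scored as reduced luminescence.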
% is scaled to controls: 0 for no effect and ±100 for the full control effect; potency is read from the fitted curve at half-maximal effect; tags tell the direction and shape of the fitted curve.

| Compound | Potency | activity change, negative = inhibition |
| --- | --- | --- |
| Cc1cc(C)n(-c2nc3ccccc3nc2N2CCN(C(=O)c3ccc(Cl)cc3)CC2)n1 | inconclusive [inhibitor, partial curve, poor fit] | – |
| CCc1ccc(C(c2ccc(CC)cc2)C(Cl)Cl)cc1 | inconclusive [inhibitor, single point] | – |
| O=C(Nc1cccc2cccnc12)c1cccc(Cl)c1 | – | inactive: 4.48% |
| O=C(CCNS(=O)(=O)c1ccccc1F)N1CCN(Cc2ccccc2)CC1 | – | inactive: 6.01% |
| CCCCN(CCCC)CCCNC(=O)C1CC(c2ccc(C(F)(F)F)cc2)=NO1 (stereo not drawn) | inconclusive [inhibitor, partial curve, poor fit] | – |
| Cc1ccc(N(CC(=O)NC(C)(C)C)C(=O)CNC(=O)c2cccs2)c(C)c1 | active: 8.28 µM | – |
| COc1ccc(C(=O)/C=C/C(=O)N(Cc2ccc(F)cc2)C(C(=O)NC2CCCCC2)c2ccncc2)c(O)c1 (stereo not drawn) | active: 5.22 µM | – |
| O=C(c1ccccc1)c1nn(-c2ccccc2)c2nnc(Cc3ccccc3)c(=O)n12 | active: 10.4 µM | – |
| CCCC(=O)Nc1nc2ccc(NC(=O)c3c(F)c(F)c(OC)c(F)c3F)cc2s1 | inconclusive [inhibitor, partial curve, poor fit] | – |
| O=C(NCc1ccccc1)/C(NC(=O)c1ccccc1)=C(/Sc1ccccn1)c1ccccc1 | inconclusive [inhibitor, single point] | – |
| Cc1[nH]c2c(Br)cccc2c1[C@H]1[C@@H](CC#N)C1(C)C | inconclusive [inhibitor, partial curve] | – |
| COc1cc(C(=O)Nc2c(C(=O)N3CCOCC3)oc3ccccc23)cc(OC)c1OC | inconclusive [inhibitor, partial curve, poor fit] | – |
| Cc1cc(NC(=O)CCC(=O)N(CC(=O)NC2CCCC2)c2ccc(F)c(Cl)c2)no1 | inconclusive [inhibitor, partial curve, poor fit] | – |
| N#CC1=C(Nc2ccccc2Cl)SC(c2ccccc2O)NC1=O (stereo not drawn) | inconclusive [inhibitor, single point] | – |
| Cc1cc(N2CCOCC2)c(F)cc1C(=O)c1ccccc1 | inconclusive [inhibitor, full curve, poor fit] | – |
| CCOC(=O)C1=C(C)N=c2s/c(=C\C(=O)OC)c(=O)n2C1c1ccc(OC)cc1 (stereo not drawn) | inconclusive [inhibitor, single point] | – |
| Cc1ccc(C(NC(=O)C2CCCCC2)c2c(O)ccc3ccccc23)cc1 (stereo not drawn) | inconclusive [inhibitor, single point] | – |
| COc1cccc(CN(C)C(=O)CCc2nnc(-c3ccsc3)o2)c1 | active: 10.4 µM | – |
| CC(C)Cn1c(SCC(=O)NC(=O)NC2CCCC2)nc2ccccc21 | inconclusive [inhibitor, single point] | – |
| COc1cc(C(C)=O)ccc1OCC(=O)Nc1ccc2nc(C)sc2c1 | inconclusive [inhibitor, single point] | – |
| Cc1c(Br)c(C(F)(F)F)nn1CC(=O)N(C)C1CCCCC1 | – | inactive: 19.1% |
| CCOC(=O)c1c(C)[nH]c(C)c1C(=O)COC(=O)/C=C/c1cccc(C(F)(F)F)c1 | active: 14.7 µM | – |
| Cc1cc(Oc2cc(NN3CCCCC3)c([N+](=O)[O-])cc2[N+](=O)[O-])c(C(=O)c2ccccc2)cc1Cl | inconclusive [inhibitor, partial curve, poor fit] | – |

| Compound | Potency | activity change, negative = inhibition |
| --- | --- | --- |
| CCCCn1c(SCc2cccc([N+](=O)[O-])c2)nc2ccsc2c1=O | inconclusive [inhibitor, partial curve, poor fit] | – |
| CCN1CCN(C(=O)C2(NC(=O)Nc3ccccc3Cl)CCCCC2)CC1 | – | inactive: 10.6% |
| CC(C)(C)c1ccc(OCc2ccc(C(=O)N/N=C/c3ccc(O)c(O)c3)cc2)cc1 | inconclusive [inhibitor, single point] | – |
| CCN1CCn2c3c(c4cc(C)ccc42)CCCC31 (stereo not drawn) | active: 8.28 µM | – |
| O=C(CN1CCCc2ccccc21)Nc1cccc(S(=O)(=O)N2CCOCC2)c1 | inconclusive [inhibitor, single point] | – |
| COc1ccc(-n2c(SCC(=O)NCc3cccs3)nnc2-c2ccoc2C)cc1 | inconclusive [inhibitor, single point] | – |
| COc1ccc(OCCCC(=O)Nc2nccs2)cc1 | inconclusive [inhibitor, single point] | – |
| CCOc1ccccc1C1C(C(N)=O)=C(C)Nc2nc(-c3cccc(C)c3)nn21 (stereo not drawn) | inconclusive [inhibitor, partial curve, poor fit] | – |
| Nc1ccc2c(c1)oc1ccccc12 | – | inactive: 42.5% |
| CC1CCCC(C)N1C(=O)Cn1c(SCC(=O)Nc2ccc3c(c2)OCO3)nc2ccccc21 (stereo not drawn) | inconclusive [inhibitor, single point] | – |
| CCC(c1nnnn1Cc1ccco1)N(Cc1cc2cc(C)cc(C)c2[nH]c1=O)CC1CCCO1 (stereo not drawn) | inconclusive [inhibitor, single point] | – |
| CC(C)(C)c1ccccc1OCCOCCNCc1ccccc1 | active: 8.28 µM | – |
| CCC1CN(C(=O)NCc2cccc(OC)c2)c2cc(Cl)ccc2O1 (stereo not drawn) | inconclusive [inhibitor, single point] | – |
| CCCCOc1ccc(C2C(=O)N(C3CCCCC3)CC(=O)N2CC2CCCO2)cc1 (stereo not drawn) | inconclusive [inhibitor, single point] | – |
| CCOC(=O)c1cnn(-c2ccccc2)c1-n1cccc1C(=O)C(=O)Nc1ccc(OC)cc1 | – | inactive: 5.27% |
| c1ccc2c(c1)Cn1nc(Cc3nc4c(s3)CCCC4)nc1-2 | – | inactive: 26.1% |
| CN1[C@@H](CC(=O)c2ccccc2)CCC[C@H]1C[C@H](O)c1ccccc1 | active: 13.5 µM | – |
| Cc1cccc(N2CCC(NCc3c(C(=O)N4CCCCC4)nc4c(C)cccn34)CC2)c1 | inconclusive [inhibitor, single point] | – |
| CC(=O)OCC1=C(C(=O)O)N2C(=O)C(NC(=O)C(C)Cn3nc(C)c(Cl)c3C)C2SC1 (stereo not drawn) | – | inactive: -20% |
| Cc1ccc(C(=O)N/N=C/c2ccc([N+](=O)[O-])s2)cc1 | inconclusive [inhibitor, full curve] | – |
| O=C(COc1ccc(F)cc1Cl)Nc1nc(-c2ccccn2)cs1 | inconclusive [inhibitor, single point] | – |
| CCOc1ccc(NC(=O)/C=C/c2ccccc2)c([N+](=O)[O-])c1 | active: 9.28 µM | – |
| COc1cc(/C=C(\C#N)c2ccccn2)ccc1OCc1ccccc1Cl | active: 1.85 µM | – |

| Compound | Potency | activity change, negative = inhibition |
| --- | --- | --- |
| CC1(C)CC(=O)C/C(=N\NC(=O)C2C3CCCCC32)C1 (stereo not drawn) | – | inactive: 9.85% |
| COCCNC(=O)Cc1c(C)c2c(cc(C)c3c(C)coc32)oc1=O | – | inactive: -0.701% [at 0.00184 µM] |
| COc1ccc(N(C(C)C(=O)Nc2cccnc2)S(C)(=O)=O)cc1 (stereo not drawn) | – | inactive: 0.299% |
| OC(Cn1c2ccccc2c2ccccc21)C[n+]1ccccc1 (stereo not drawn) | active: 7.38 µM | – |
| Oc1ccc(Cl)cc1C=Nc1ccc(Br)cc1 | – | inactive: 31.9% |
| COc1ccc(CNC(=O)C(c2ccc(C)o2)N(Cc2cccs2)C(=O)Cc2cccs2)cc1 (stereo not drawn) | active: 14.7 µM | – |
| Cc1ccc(-n2ncc3c(NCCCN4CCCC4=O)ncnc32)c(C)c1 | inconclusive [inhibitor, partial curve, poor fit] | – |
| O=C(CCl)N(CCCNC(=O)C(F)(F)F)c1ccc([N+](=O)[O-])cc1 | active: 9.28 µM | – |
| COc1ccc(-c2noc(Cn3cc(S(=O)(=O)N4CCCC4)ccc3=O)n2)cc1 | inconclusive [inhibitor, single point] | – |
| CCC1(c2ccccc2)NC(=O)N(CC(=O)Nc2ccc(S(=O)(=O)NC3=NCCCCC3)cc2)C1=O (stereo not drawn) | inconclusive [inhibitor, single point] | – |
| Cc1ccc(-n2nc3c(N4CCC(C(=O)N5CCN(C)CC5)CC4)nnc(C)c3c2C)cc1 | inconclusive [inhibitor, partial curve] | – |
| COc1cc(OC)c(OC)cc1CNC(=O)c1ccc(S(=O)(=O)N2CCCCC2)cc1 | active: 9.28 µM | – |
| CC(C)c1ccc(O)c(NC(=S)NC(=O)c2cccnc2)c1 | inconclusive [inhibitor, single point] | – |
| O=C(c1c[nH]cc1-c1ccccc1)c1cccc2ccccc12 | inconclusive [inhibitor, single point] | – |
| O=C(CC(c1ccccc1)c1cc(Br)ccc1O)N1CCCC1 (stereo not drawn) | inconclusive [inhibitor, single point] | – |
| O=C(COc1ccc(/C=C\[N+](=O)[O-])cc1)N1CCOCC1 | inconclusive [inhibitor, single point] | – |
| O=C1CSC2=NCN(c3ccc4c(c3)OCO4)CN12 | – | inactive: 28.4% |
| CCOC(=O)C1=C(O)/C(=C/c2ccc(OCC(=O)O)c(OCC)c2)SC1=Nc1ccc(C)cc1 | inconclusive [inhibitor, single point] | – |
| CC(C(=O)Nc1ccc2c(c1)OCO2)N1CCN(C)CC1 (stereo not drawn) | inconclusive [inhibitor, partial curve] | – |
| CN(C)c1cccc(C(=O)NCC2CCCO2)c1 (stereo not drawn) | – | inactive: 49.7% |
| COC(=O)[C@@]12CCCN1[C@H](c1ccc(-c3ccc(OC)cc3)cc1)[C@@H]1C(=O)N(C)C(=O)[C@@H]12 | active: 5.86 µM | – |
| CN(C)c1ccc(C(C(=O)NCC2CCCO2)N(Cc2ccco2)C(=O)c2snc(C(N)=O)c2N)cc1 (stereo not drawn) | inconclusive [inhibitor, partial curve, poor fit] | – |
